The text below walks through data of patent US11655268B2, “Nucleoside or nucleotide derivatives, and uses thereof” (ST Pharm Co., Ltd., priority 2018, dated 2023).

Structures are written as SMILES. pEC50: −log10 of the molar value. Counter-ions that a name gives are not always drawn.

Assay [1] relates to Influenza virus A/HongKong/8/68 (H3N2). The assay is described as follows: Cytopathic effect reduction, influenza A H3N2 (Hong Kong) in MDCK cells, MTT. Conditions: for Selectivity index FluA H3N2 (Hong Kong): CC50/EC50; for pEC50: read-out: Anti-Flu activity EC50 FluA H3N2 (Hong Kong), MDCK cells, day 3 post-infection.
Assay [2] concerns Influenza virus A/Puerto Rico/8/34 (H1N1). Description: Cytopathic effect reduction, influenza A H1N1 (PR8) in MDCK cells, MTT. Conditions: for Selectivity index FluA H1N1 (PR8): CC50/EC50; for pEC50: read-out: Anti-Flu activity EC50 FluA H1N1 (PR8), MDCK cells, day 3 post-infection.

One may read the pEC50 as the EC50 on a negative log10 scale, so that one unit is a factor of ten. In the case of `Cc1cccc(C(=O)Nc2ccn([C@@H]3O[C@H](CO)[C@@H](O)C3(F)F)c(=O)n2)n1` [Example 13, N-(1-((2R,4R,5R)-3,3-difluoro-4-hydroxy-5-(hydroxymethyl)tetrahydrofuran-2-yl)-2-oxo-1,2-dihydropyrimidin-4-yl)-6-methylpicolinamide], in assay [1], the “Selectivity index FluA H3N2 (Hong Kong)” value is more than 14.1 and the pEC50 was 5.15. For the same molecule, in assay [2], the “Selectivity index FluA H1N1 (PR8)” value is listed as more than 11.0 and the negative-log EC50 (pEC50) is 5.04.
`Nc1ccn([C@@H]2O[C@H](CO)[C@@H](O)[C@H]2F)c(=O)n1` [2′-FdC, reference compound]: the pEC50 in assay [1] is 4.88; in assay [2] it was 5.43.
For `O=C(Nc1ccn([C@@H]2O[C@H](CO)[C@@H](O)C2(F)F)c(=O)n1)c1ccc([N+](=O)[O-])cn1` [Example 19, N-(1-((2R,4R,5R)-3,3-difluoro-4-hydroxy-5-(hydroxymethyl)tetrahydrofuran-2-yl)-2-oxo-1,2-dihydropyrimidin-4-yl)-5-nitropicolinamide], in assay [1], the “Selectivity index FluA H3N2 (Hong Kong)” value is recorded as more than 50.0 and the pEC50 was 5.70. In assay [2], the “Selectivity index FluA H1N1 (PR8)” value is more than 71.4 and the pEC50 is 5.85.
On to `CCC(CC)O[C@@H]1C=C(C(=O)O)C[C@H](N)[C@H]1NC(C)=O` [OSV-C, oseltamivir carboxylate, reference compound], for which the negative-log EC50 (pEC50) was more than 8.30 in assay [1] and 7.05 in assay [2].
As for `NC12CC3CC(CC(C3)C1)C2` [AMT, amantadine hydrochloride, reference compound], in assay [1], the “Selectivity index FluA H3N2 (Hong Kong)” value was more than 90.9. For the same molecule, the results for the pEC50 in assay [1] and in assay [2] were 5.96 and less than 4.00, respectively.
Take `O=C(Nc1ccn(C2O[C@H](CO)[C@@H](O)[C@H]2F)c(=O)n1)c1ccc(F)cn1` (stereo in doubt) [Example 35, 5-Fluoro-N-(1-((2S,3R,4R,5R)-3-fluoro-4-hydroxy-5-(hydroxymethyl)tetrahydrofuran-2-yl)-2-oxo-1,2-dihydropyrimidin-4-yl)picolinamide]: in assay [1], the “Selectivity index FluA H3N2 (Hong Kong)” value is reported as more than 5.2 and the pEC50 is 4.72. Further, in assay [2], the “Selectivity index FluA H1N1 (PR8)” value is more than 1.5 and the pEC50 was 4.18.
For `Cc1ccc(C(=O)Nc2ccn([C@@H]3O[C@H](CO)[C@@H](O)C3(F)F)c(=O)n2)nc1` [Example 10, N-(1-((2R,4R,5R)-3,3-difluoro-4-hydroxy-5-(hydroxymethyl)tetrahydrofuran-2-yl)-2-oxo-1,2-dihydropyrimidin-4-yl)-5-methylpicolinamide] the same measures were more than 8.8, 4.94, more than 6.2 and 4.79.
Consider `Cn1cc(C(=O)Nc2ccn([C@@H]3O[C@H](CO)[C@@H](O)C3(F)F)c(=O)n2)cn1` [Example 15, N-(1-((2R,4R,5R)-3,3-difluoro-4-hydroxy-5-(hydroxymethyl)tetrahydrofuran-2-yl)-2-oxo-1,2-dihydropyrimidin-4-yl)-1-methyl-1H-pyrazole-4-carboxamide], for which, in assay [1], the “Selectivity index FluA H3N2 (Hong Kong)” value is given as 14.7 and the pEC50 is 5.17. For the same molecule, in assay [2], the “Selectivity index FluA H1N1 (PR8)” value is reported as more than 8.3 and the pEC50 is 4.92.
For `O=C(Nc1ccn(C2O[C@H](CO)[C@@H](O)[C@H]2F)c(=O)n1)c1cccc(-c2ccccc2)n1` (stereo in doubt) [Example 27, N-(1-((2S,3R,4R,5R)-3-fluoro-4-hydroxy-5-(hydroxymethyl)tetrahydrofuran-2-yl)-2-oxo-1,2-dihydropyrimidin-4-yl)-6-phenylpicolinamide] the same measures were more than 6.4, 4.80, more than 5.0 and 4.70.
Take `O=C(Nc1ccn(C2O[C@H](CO)[C@@H](O)[C@H]2F)c(=O)n1)c1ccc(C(F)(F)F)nc1` (stereo in doubt) [Example 41, N-(1-((2S,3R,4R,5R)-3-fluoro-4-hydroxy-5-(hydroxymethyl)tetrahydrofuran-2-yl)-2-oxo-1,2-dihydropyrimidin-4-yl)-6-(trifluoromethyl)nicotinamide]: in assay [1], the “Selectivity index FluA H3N2 (Hong Kong)” value is recorded as more than 6.3 and the negative-log EC50 (pEC50) was 4.80. In addition, in assay [2], the “Selectivity index FluA H1N1 (PR8)” value is more than 2.2 and the pEC50 was 4.33.
For `Cc1nccc(C(=O)Nc2ccn(C3O[C@H](CO)[C@@H](O)[C@H]3F)c(=O)n2)n1` (stereo in doubt) [Example 29, N-(1-((2S,3R,4R,5R)-3-fluoro-4-hydroxy-5-(hydroxymethyl)tetrahydrofuran-2-yl)-2-oxo-1,2-dihydropyrimidin-4-yl)-2-methylpyrimidin-4-carboxamide] the same measures were more than 38.5, 5.59, more than 6.5 and 4.81.
For the molecule `O=C(Nc1ccn(C2O[C@H](CO)[C@@H](O)[C@H]2F)c(=O)n1)c1ccc(F)nc1` (stereo in doubt) [Example 42, 6-Fluoro-N-(1-((2S,3R,4R,5R)-3-fluoro-4-hydroxy-5-(hydroxymethyl)tetrahydrofuran-2-yl)-2-oxo-1,2-dihydropyrimidin-4-yl)nicotinamide], in assay [1], the “Selectivity index FluA H3N2 (Hong Kong)” value is more than 5.6 and the pEC50 was 4.75. In assay [2], the “Selectivity index FluA H1N1 (PR8)” value is given as more than 2.2 and the pEC50 was 4.34.
For `O=C(Nc1ccn([C@@H]2O[C@H](CO)[C@@H](O)C2(F)F)c(=O)n1)c1ccccn1` [Example 2, N-(1-((2R,4R,5R)-3,3-difluoro-4-hydroxy-5-(hydroxymethyl)tetrahydrofuran-2-yl)-2-oxo-1,2-dihydropyrimidin-4-yl)picolinamide] the same measures were more than 300, 6.00, more than 176.5 and 5.77.
